From patent publication US11618753B2 (priority 2018, dated 2023) come the findings set out here.

Molecules are shown by their SMILES.

By IC50 is commonly meant the concentration that inhibits the measured activity by half.

In the experiment the test system is MLKL phosphorylation, HT29-L23 human colorectal adenocarcinoma cells. Put plainly: cells. Particulars: read-out: pMLKL HCS Cell Assay (IC50, uM).
In the case of `COc1ncc(-c2cc(CN3CCC(F)(F)C3)c3c(N)ncnn23)cc1C(=O)N[C@@H]1CN(C(=O)[C@@](C)(O)C(F)(F)F)C[C@@H]1F` [Example 1589, 5-{4-amino-5-[(3,3-difluoropyrrolidin-1-yl)methyl]pyrrolo[2,1-f][1,2,4]triazin-7-yl}-N-[(3R,4S)-4-fluoro-1-[(2R)-3,3,3-trifluoro-2-hydroxy-2-methylpropanoyl]pyrrolidin-3-yl]-2-methoxypyridine-3-carboxamide], the IC50 came out at 0.00029 µM.

On to `COc1ncc(-c2cc(C(F)(F)F)c3c(N)ncnn23)cc1C(=O)N[C@@H]1CN(C(=O)c2ccccc2)C[C@@H]1C` [Example 295, 5-[4-amino-5-(trifluoromethyl)pyrrolo[2,1-f][1,2,4]triazin-7-yl]-N-[(3S,4S)-1-benzoyl-4-methylpyrrolidin-3-yl]-2-methoxypyridine-3-carboxamide], for which the IC50 came to 0.065 µM. The same measure for `CCc1c(F)cc(-c2cc(C(F)(F)F)c3c(N)ncnn23)cc1C(=O)N[C@@H]1CN(C(=O)CC(C)C)C[C@@H]1F` [Example 646, 5-[4-amino-5-(trifluoromethyl)pyrrolo[2,1-f][1,2,4]triazin-7-yl]-2-ethyl-3-fluoro-N-[(3R,4S)-4-fluoro-1-(3-methylbutanoyl)pyrrolidin-3-yl]benzamide]: 0.0042 µM; for `Cc1cc(F)c(-c2cc(C(F)(F)F)c3c(N)ncnn23)cc1C(=O)N[C@@H]1CN(C(=O)c2cc(F)c(F)cc2F)C[C@@H]1F` [Example 815, 5-[4-amino-5-(trifluoromethyl)pyrrolo[2,1-f][1,2,4]triazin-7-yl]-4-fluoro-N-[(3R,4S)-4-fluoro-1-(2,4,5-trifluorobenzoyl)pyrrolidin-3-yl]-2-methylbenzamide]: 0.011 µM; for `CCC(O)(CCNC(=O)c1cc(-c2cc(C(F)(F)F)c3c(N)ncnn23)cnc1OC)c1ccc(Cl)cc1` (stereo not shown) [Example 147, 5-[4-amino-5-(trifluoromethyl)pyrrolo[2,1-f][1,2,4]triazin-7-yl]-N-[3-(4-chlorophenyl)-3-hydroxypentyl]-2-methoxypyridine-3-carboxamide]: 0.201 µM.

For `[2H]C([2H])([2H])Oc1ncc(-c2cc(CN3CC(F)(F)C3)c3c(N)ncnn23)cc1C(=O)N[C@@H]1CN(C(=O)CC(F)(F)F)C[C@@H]1F` [Example 1286, 5-{4-amino-5-[(3,3-difluoroazetidin-1-yl)methyl]pyrrolo[2,1-f][1,2,4]triazin-7-yl}-N-[(3R,4S)-4-fluoro-1-(3,3,3-trifluoropropanoyl)pyrrolidin-3-yl]-2-(methoxy-d3)nicotinamide], the IC50 turned out to be 0.0025 µM. With `Cc1cc(F)c(-c2cc(CN3CCC(F)(F)CC3)c3c(N)ncnn23)cc1C(=O)N[C@@H]1CN(C(=O)CC(O)(C(F)(F)F)C(F)(F)F)C[C@@H]1F` [Example 1656, 5-{4-amino-5-[(4,4-difIuoropiperidin-1-yl)methyl]pyrrolo[2,1-f][1,2,4]triazin-7-yl}-4-fluoro-N-[(3R,4S)-4-fluoro-1-[4,4,4-trifluoro-3-hydroxy-3-(trifluoromethyl)butanoyl]pyrrolidin-3-yl]-2-methylbenzamide], the IC50 stood at 0.001 µM. For the compound `Cc1cc(C)c(-c2cc(C(F)(F)F)c3c(N)ncnn23)cc1C(=O)N[C@@H]1CN(C(=O)C2CCC(F)(F)CC2)C[C@@H]1F` [Example 539, 5-[4-amino-5-(trifluoromethyl)pyrrolo[2,1-f][1,2,4]triazin-7-yl]-N-[(3R,4S)-1-(4,4-difluorocyclohexanecarbonyl)-4-fluoropyrrolidin-3-yl]-2,4-dimethylbenzamide], the IC50 came to 0.055 µM. As for `COc1ncc(-c2cc(Cl)c3c(N)ncnn23)cc1C(=O)Nc1cnn(CC(C)(C)C)c1` [Example 47, 5-(4-amino-5-chloropyrrolo[2,1-f][1,2,4]triazin-7-yl)-2-methoxy-N-(1-neopentyl-1H-pyrazol-4-yl)nicotinamide], the IC50 stood at 0.16 µM. For `COc1ncc(-c2cc(C(F)(F)F)c3c(N)ncnn23)cc1C(=O)N[C@@H]1CN(C(C)CC(O)C(F)(F)F)C[C@@H]1F` (single isomer, unassigned) [Example 1381], the IC50 came to 0.071 µM. The same measure for `Cc1ccc(-c2cc(C(F)(F)F)c3c(N)ncnn23)cc1C(=O)N[C@@H]1CN(C(=O)c2ccc(F)cc2Cl)C[C@@H]1F` [Example 1043, 5-[4-amino-5-(trifluoromethyl)pyrrolo[2,1-f][1,2,4]triazin-7-yl]-N-[(3R,4S)-1-(2-chloro-4-fluorobenzoyl)-4-fluoropyrrolidin-3-yl]-2-methylbenzamide]: 0.0023 µM.

For `COc1ncc(-c2cc(C(=O)N3CC(F)(F)C3)c3c(N)ncnn23)cc1C(=O)N[C@@H]1CN(C(=O)C2CC(F)(F)C2)C[C@@H]1F` [Example 1350, 5-[4-amino-5-(3,3-difluoroazetidine-1-carbonyl)pyrrolo[2,1-f][1,2,4]triazin-7-yl]-N-[(3R,4S)-1-(3,3-difluorocyclobutanecarbonyl)-4-fluoropyrrolidin-3-yl]-2-methoxypyridine-3-carboxamide], the IC50 amounted to 0.22 µM. The same measure for `COc1ncc(-c2cc(C(F)(F)F)c3c(N)ncnn23)cc1C(=O)N[C@@H]1CN(C(=O)CC2CCCCC2)C[C@@H]1F` [Example 1216, 5-[4-amino-5-(trifluoromethyl)pyrrolo[2,1-f][1,2,4]triazin-7-yl]-N-[(3R,4S)-1-(2-cyclohexylacetyl)-4-fluoropyrrolidin-3-yl]-2-methoxypyridine-3-carboxamide]: 0.048 µM; for `C[C@@](O)(C(=O)N1C[C@H](F)[C@H](NC(=O)c2cc(-c3cc(CN4CCC(C(F)(F)F)CC4)c4c(N)ncnn34)ccc2Cl)C1)C(F)(F)F` [Example 1159, 5-(4-amino-5-{[4-(trifluoromethyl)piperidin-1-yl]methyl}pyrrolo[2,1-f][1,2,4]triazin-7-yl)-2-chloro-N-[(3R,4S)-4-fluoro-1-[(2R)-3,3,3-trifluro-2-hydroxy-2-methylpropanoyl]pyrrolidin-3-yl]benzamide]: 0.00085 µM; for `COc1ncc(-c2cc(C(F)(F)F)c3c(N)ncnn23)cc1C(=O)N[C@@H]1CN(C(=O)Oc2ccccc2)C[C@@H]1F` [Example 1421, phenyl (3R,4S)-3-{5-[4-amino-5-(trifluoromethyl)pyrrolo[2,1-f][1,2,4]triazin-7-yl]-2-methoxypyridine-3-amido}-4-fluoropyrrolidine-1-carboxylate]: 0.274 µM. Consider `Cc1ncc(-c2cc(C(F)(F)F)c3c(N)ncnn23)cc1C(=O)N[C@@H]1CN(C(=O)CC(O)(C(F)(F)F)C(F)(F)F)C[C@@H]1F` [Example 1236, 5-[4-amino-5-(trifluoromethyl)pyrrolo[2,1-f][1,2,4]triazin-7-yl]-N-[(3R,4S)-4-fluoro-1-[4,4,4-trifluoro-3-hydroxy-3-(trifluoromethyl)butanoyl]pyrrolidin-3-yl]-2-methylpyridine-3-carboxamide], for which the IC50 is 0.0032 µM. The same measure for `COc1ccc(-c2cc(C(F)(F)F)c3c(N)ncnn23)cc1C(=O)NCc1ccccc1OCC1CC1` [Example 163, 5-[4-amino-5-(trifluoromethyl)pyrrolo[2,1-f][1,2,4]triazin-7-yl]-N-{[2-(cyclopropylmethoxy)phenyl]methyl}-2-methoxybenzamide]: 0.17 µM; for `COc1ncc(-c2ccc3c(N)ncnn23)cc1C(=O)N[C@@H]1CN(C(=O)C2CC(F)(F)C2)C[C@@H]1F` [Example 154, 5-{4-aminopyrrolo[2,1-f][1,2,4]triazin-7-yl}-N-[(3R,4S)-1-(3,3-difluorocyclobutanecarbonyl)-4-fluoropyrrolidin-3-yl]-2-methoxypyridine-3-carboxamide]: 0.066 µM. The same measure for `CCc1ccc(-c2cc(C(F)(F)F)c3c(N)ncnn23)c(F)c1C(=O)N[C@@H]1CN(C(=O)C2CCC(F)(F)C2)C[C@@H]1F` (stereo partly drawn) [Example 743, 3-[4-amino-5-(trifluoromethyl)pyrrolo[2,1-f][1,2,4]triazin-7-yl]-N-[(3R,4S)-1-(3,3-difluorocyclopentanecarbonyl)-4-fluoropyrrolidin-3-yl]-6-ethyl-2-fluorobenzamide]: 0.0088 µM; for `COc1ncc(-c2cc(C(F)(F)F)c3c(N)ncnn23)cc1C(=O)NC1CN(C(=O)[C@@](C)(O)C(F)(F)F)CC1(F)F` (stereo partly drawn) [Example 563, 5-(4-amino-5-(trifluoromethyl)pyrrolo[2,1-f][1,2,4]triazin-7-yl)-N-(4,4-difluoro-1-((R)-3,3,3-trifluoro-2-hydroxy-2-methylpropanoyl)pyrrolidin-3-yl)-2-methoxynicotinamide]: 0.033 µM; for `[2H]C([2H])([2H])Oc1ncc(-c2cc(CN3CC(F)(F)C3)c3c(N)ncnn23)cc1C(=O)N[C@@H]1CN(S(=O)(=O)C(C)C)C[C@@H]1F` [Example 1298, 5-{4-amino-5-[(3,3-difluoroazetidin-1-yl)methyl]pyrrolo[2,1-f][1,2,4]triazin-7-yl}-N-[(3R,4S)-4-fluoro-1-(propane-2-sulfonyl)pyrrolidin-3-yl]-2-(methoxy-d3)nicotinamide]: 0.0014 µM.

Take `COc1ccc(-c2cc(C(F)(F)F)c3c(N)ncnn23)cc1C(=O)N[C@@H]1CN(C(=O)CC(C)(O)C(F)(F)F)C[C@@H]1F` (stereo partly drawn) [Example 1130, 5-[4-amino-5-(trifluoromethyl)pyrrolo[2,1-f][1,2,4]triazin-7-yl]-N-[(3R,4S)-4-fluoro-1-(4,4,4-trifluoro-3-hydroxy-3-methylbutanoyl)pyrrolidin-3-yl]-2-methoxybenzamide]: the IC50 came out at 0.015 µM. In the case of `Cc1cc(C)c(-c2cc(C(F)(F)F)c3c(N)ncnn23)cc1C(=O)N[C@@H]1CN(C(=O)C2CC(F)(F)C2)C[C@@H]1F` [Example 537, 5-[4-amino-5-(trifluoromethyl)pyrrolo[2,1-f][1,2,4]triazin-7-yl]-N-[(3R,4S)-1-(3,3-difluorocyclobutanecarbonyl)-4-fluoropyrrolidin-3-yl]-2,4-dimethylbenzamide], the IC50 was 0.021 µM. The same measure for `CC(C)(O)C(=O)N1C[C@H](F)[C@H](NC(=O)c2cc(-c3cc(C(F)(F)F)c4c(N)ncnn34)cc(F)c2Cl)C1` [Example 639]: 0.068 µM; for `Cc1ccc(-c2cc(C(F)(F)F)c3c(N)ncnn23)cc1C(=O)N[C@@H]1CN(C(=O)c2ccc(F)c(F)c2)C[C@@H]1F` [Example 1008, 5-[4-amino-5-(trifluoromethyl)pyrrolo[2,1-f][1,2,4]triazin-7-yl]-N-[(3R,4S)-1-(3,4-difluorobenzoyl)-4-fluoropyrrolidin-3-yl]-2-methylbenzamide]: 0.0057 µM.
